According to the supplement of paper PMC4604168 (melanoma cell lines):
This is one part of the list. Many values rest on one well or one pass, so single values are uncertain.

What was measured:
Experiment in all cases: cell count relative to DMSO control; melanoma cells; higher = more viable cells
Conditions in all cases: library dose: standard library concentration; 72 h
SkMel28 = test system: SkMel28
SkMel2 = test system: SkMel2
SkMel30 = test system: SkMel30
SkMel5 = test system: SkMel5
UACC257 = test system: UACC257
UACC62 = test system: UACC62
WM115 = test system: WM115
WM1716 = test system: WM1716
WM3526 = test system: WM3526
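Further: cells treated in 1,536-well plates, then fixed and DAPI-stained, with nuclei counted from automated high-throughput microscope images.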

Row | Compound | cell count (SkMel28) | cell count (SkMel2) | cell count (SkMel30) | cell count (SkMel5) | cell count (UACC257) | cell count (UACC62) | cell count (WM115) | cell count (WM1716) | cell count (WM3526)
1 | Cn1cc(C2=C(c3cn(C4CCN(Cc5ccccn5)CC4)c4ccccc34)C(=O)NC2=O)c2ccccc21 [Enzastaurin] + CCc1ccc(CCOc2ccc(CC3SC(=O)NC3=O)cc2)nc1 [pioglitazone] (first compound 4 µM, partner dose 10 µM) | 96.9% | 83.9% | 116% | 94.9% | 90.5% | 84.1% | 112% | 90.1% | 91%
2 | C[C@]12O[C@H](C[C@]1(O)CO)n1c3ccccc3c3c4c(c5c6ccccc6n2c5c31)CNC4=O [Lestaurtinib] + O=c1cc(-c2cccc3c2Sc2ccccc2S3)oc(N2CCOCC2)c1 [KU55933] (first compound 0.02 µM, partner dose 5 µM) | 65% | 85.1% | 86.3% | 55.4% | 87.1% | 79.3% | 65.3% | 80.9% | 54.2%
3 | C[C@]12O[C@H](C[C@]1(O)CO)n1c3ccccc3c3c4c(c5c6ccccc6n2c5c31)CNC4=O [Lestaurtinib] + O=C1NC(=O)/C(=C/c2ccc(-c3ccc(F)cc3O)o2)S1 [AS252424] (first compound 0.02 µM, partner dose 5 µM) | 121% | 104% | 95% | 70.4% | 109% | 104% | 114% | 116% | 83.3%
4 | Cn1cc(C2=C(c3cn(C4CCN(Cc5ccccn5)CC4)c4ccccc34)C(=O)NC2=O)c2ccccc21 [Enzastaurin] + COC(=O)c1sccc1S(=O)(=O)Nc1ccc(Nc2ccccc2)cc1OC [GSK0660] (first compound 4 µM, partner dose 5 µM) | 89.3% | 75.5% | 99.3% | 103% | 81.5% | 79.7% | 104% | 76.3% | 94.1%
5 | N.N.[Cl][Pt][Cl] [cisplatin] + Cc1cc(SCc2sc(-c3ccc(C(F)(F)F)c(F)c3)nc2C)ccc1OCC(=O)O [GW0742] (first compound 8 µM, partner dose 10 µM) | 92.3% | 95% | 103% | 93.5% | 65.5% | 86.8% | 114% | 81.9% | 87.8%
